Assay results published in the RNAGym collection of RNA variant scans (doi:10.7554/elife.90254).
Read counts are not given, so values of variants with three or more changes are uncertain.

B1: LINE1-mini (parent)
chain: GGCAGAGCUCAACACAGCGUGGCAAAGUGGCUGUGGCUAGACUGCC

Variants of: B1
Test: self-cleavage, relative activity (ratio to wild type); higher = more cleavage; in vitro, sequencing; the parent is a self-cleaving ribozyme

| Variant | self-cleavage |
| --- | --- |
| G19U G27A G29U G35U C37U | 0.01 |
| G19U G29C G40A C42A | 0 |
| U20A G21U C23A | 1.78 |
| U20A C23U A24G C42G | 0.01 |
| G19C G22A G36C | 0.17 |
| G19C G33A U34A | 0.08 |
| G19U G22A A41C | 0.05 |
| G19C G21A U38C | 0.15 |
| G19U U28A U34C U43A | 0.05 |
| G19A G21U G29U G36C | 0.01 |
| G19C G33U U34C C46A | 0.11 |
| G19C C42U C46A | 0.07 |
| G19A U20C G22U U34G | 0.59 |
| G19A G27U A39U | 1.48 |
| G19U A26C A39C | 0.04 |
| U20A C42A G44C | 0.19 |
| G19C U20C G35U C46A | 0.08 |
| G19A C23U C42U | 0.41 |
| G19C U20A G29C C37U | 0.07 |
| G19A U20A G22C G29U A41C | 0.02 |
| G19C C31G G33U C46U | 0.08 |
| G19C C31A U32G | 0.04 |
| G19A G21U G30A G33A U34A C42A | 0.01 |
| G19C A26C G40C | 0.02 |

| Variant | self-cleavage |
| --- | --- |
| G19U A24U C45G | 0.5 |
| G19A G21A G27U C42U | 2.83 |
| G19C G29U C37A | 0.02 |
| G19A G22U A41U C42A | 0.53 |
| G19U G30C U32C G33A | 0.02 |
| G19U U28A A39G | 0.1 |
| G19C U20A U38A G44A | 0.02 |
| G19A U34G U43C | 0.09 |
| U20A A25U G27C G44C | 0.12 |
| G19A C23A G29A U38C | 0.24 |
| G19C U28A G33U | 0.11 |
| G19C A26C A39U | 0.39 |
| G19A U34C G35A C42U | 0.01 |
| G19A U28G C42U C46G | 0.16 |
| G19U G27U G40C | 0.16 |
| G19U U20C A26G | 0.34 |
| G19C G22A A24G | 0.17 |
| G19A G22C G35U | 0.03 |
| G19A C23A U43C | 0.32 |
| G19A G21U U38G G40A | 0.04 |
| G19C G35U G36C | 0.14 |
| G19U G40A C42U | 0.01 |
| G19A U20G G40A | 0.11 |
| G19U A26C C31U G35C | 0.01 |

| Variant | self-cleavage |
| --- | --- |
| G19U G30C U38C | 0.06 |
| G19C G29C G30C U34A | 0.04 |
| G19A U20A G36U A41G | 0.04 |
| G19A C37A C42G | 0.03 |
| G19C U34A G36A | 0.16 |
| G19A G40A C42G G44A C46U | 0.15 |
| G19A U20A A24G A25G | 0.24 |
| G19A G21C G29U | 0.33 |
| U20A G21C A41C | 0.09 |
| U20A C23G G29U | 0.43 |
| G19C G35A C46A | 0.23 |
| G19A U20G A41C | 0.03 |
| U20A A25C G40A A41G | 0.09 |
| U20A G22A C46A | 0.68 |
| U20A A24G G30C G33U C46U | 0.02 |
| G19C U20C G30C C37U | 0 |
| G19U A26G U43A | 0.09 |
| G19A G22U A25C C46A | 0.37 |
| G19U G27A C37A U43A C46U | 0.01 |
| G19U A25C A26U | 2.3 |
| G19C G22U C45G | 0.47 |
| G19C C31G U38G U43C | 0.01 |
| G19A G22C A26U | 0.37 |
| G19A G21C G44C | 0.04 |

| Variant | self-cleavage |
| --- | --- |
| G19A G21C G44A | 0.17 |
| G19C A24G U28C | 0.35 |
| G19C C23A G40A | 0.02 |
| G19C G29C C31A U32G G35C U43G | 0.02 |
| G19U C31G U38A | 0.01 |
| G19A G27U U34C G35A | 0.14 |
| U20A G21A C46A | 0.32 |
| G19U G27A G29A A39U | 0.26 |
| U20A C37A A39C | 0.03 |
| G19C C31A U38G | 0.17 |
| G19U G36C C42A | 0.1 |
| G19U G22U A24C C31G U38C C42A | 0.03 |
| G19C G22U A26C G29U | 0.67 |
| G19C G30U G33C U34C A39C C42G C45G | 0.01 |
| G19A C37A C45G | 0.02 |
| G19U G22A G30U G44U C45A | 0.07 |
| G19A G30A U32C | 0.12 |
| G19C U32A G35C C46U | 0.42 |
| G19C C23U G40A | 0.02 |
| G19U U20A A26C C37A G40A | 0.02 |
| G19U A24C G30C | 1.02 |
| G19A U28G G29A G36U G44C | 0.05 |
| G19A U38G C45A | 0.01 |
| G19U C37U G44A | 0.1 |

| Variant | self-cleavage |
| --- | --- |
| G19A C23A A24U U34C | 0.5 |
| G19C C31U G35U | 0.05 |
| G19U U38C G40U | 0.01 |
| G19C A26U G29A | 0.22 |
| G19A A26C G40C | 0.03 |
| G19U A25C C37G | 0.03 |
| G19A C23A C42G | 0.02 |
| U20A A25C C31A G35A U38C | 0.04 |
| U20A C37U U38A A39U | 0.02 |
| G19U G27C C42U | 0.1 |
| G19C U20G C23G | 0.23 |
| U20A C23G U34C | 0.21 |
| U20A C23G U34A | 0.03 |
| U20A C31G C45G | 0.03 |
| G19U U20G G21U | 0.61 |
| G19A C31G A41U C42U | 0 |
| G19U G21A A26G C37U | 0.04 |
| G19C G22U U32A | 0.07 |
| G19C G22A C23A | 0.26 |
| G19A G30A G36U | 0.07 |
| G19U C23U G27A G29C | 0.29 |
| G19U G22C U28C U38C | 0.37 |
| G19A G29U A39G | 0.08 |
| G19U A25U G36U | 0.02 |

| Variant | self-cleavage |
| --- | --- |
| U20A A26C U34G | 0.33 |
| G19U G21U A24C G29C C45A | 0.04 |
| G19C U20C U38A | 0.34 |
| G19A A41U C45A | 1.06 |
| G19A G29U G40U | 0.04 |
| G19U U28C C37U C45U C46G | 0.04 |
| G19A G40U U43A | 0.11 |
| G19A C23A A25G C45A | 1.26 |
| U20A A25G G30U U38C | 0.22 |
| G19C G36C C45A | 0.03 |
| G19U A25G A26U | 0.15 |
| G19A U38C A41C | 0.03 |
| G19A G29C U34C G40C | 0.12 |
| G19U G21A C23U U38C | 0.57 |
| G19C A24G G36U | 0.02 |
| U20A C23A C31A | 0.17 |
| G19U G29U C31G | 0.07 |
| G19A U20G C37G | 0.04 |
| G19A G21U G22A | 0.15 |
| G19U G40A U43G | 0.09 |
| G19A G27C C31G U38G | 0 |
| G19U G21U A25C A26C G30C C42G | 0.03 |
| G19C C31U G44A | 0.03 |
| G19U U20A U43A G44U | 0.03 |

| Variant | self-cleavage |
| --- | --- |
| G19C U28G G33A U34G | 0.02 |
| G19C U28A G40A | 0.02 |
| G19A C31U C42A | 0.5 |
| G19C C37U G44U | 0.03 |
| G19A G21U U38G | 0.04 |
| G19A G27C U43A | 0.03 |
| G19A C23A U28A G36U | 0.02 |
| G19C G21C G29A G33U | 0.54 |
| G19A C31A C37A | 0.17 |
| G19A A24U G44A | 0.44 |
| G19U U28C G30C G35A U38C | 0.04 |
| G19U G22C A24U G35U G44A | 0.02 |
| G19U C23A G36U G40U | 0.17 |
| U20A C37G A39G A41U | 0.05 |
| G19U G40U C42A | 0.15 |
| G19U U20C G33C | 0.05 |
| U20A C45A C46U | 0.47 |
| G19U A24C A25U U34A | 0.05 |
| G19A G36U C37U | 0.01 |
| G19A C31U G35U U43C | 0.02 |
| U20A G21C C23G C46G | 1.15 |
| G19C U32C G40U | 0.1 |
| G19U A24U G30A | 1.8 |
